Reference: paper PMC4120242 (Journal of immunology (Baltimore, Md. : 1950), 2014)

T1: FcγRIIa on K562 cells (human (endogenous in K562), UniProt P12318 34-317)
T1 sequence (looked up): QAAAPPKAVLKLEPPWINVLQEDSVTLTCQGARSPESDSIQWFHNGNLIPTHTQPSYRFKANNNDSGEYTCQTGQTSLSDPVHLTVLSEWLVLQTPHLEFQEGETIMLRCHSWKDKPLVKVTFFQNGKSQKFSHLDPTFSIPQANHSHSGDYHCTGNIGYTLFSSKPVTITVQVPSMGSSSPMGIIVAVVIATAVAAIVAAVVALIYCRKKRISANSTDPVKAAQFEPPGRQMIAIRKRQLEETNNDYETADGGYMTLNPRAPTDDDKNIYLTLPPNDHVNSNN

B1: SAP variant K87A (natural protein)
chain: not shown
B2: Serum Amyloid P component (SAP), wildtype (natural protein)
chain: not shown
modifications: Alexa Fluor 647 (Alexa Fluor 647-NHS labelling) in the flow cytometry binding assays

Columns and labels:
SEC = target: the molecule itself; assay: SEC
[1] = target: FcγRI expressed on HEK293 cells (UniProt P12314); assay: flow cytometry on cells
FcγRIIa on K562 cells = target: T1, FcγRIIa on K562 cells; assay: flow cytometry on cells

Chain of UniProt P12314 (P12314 16-374): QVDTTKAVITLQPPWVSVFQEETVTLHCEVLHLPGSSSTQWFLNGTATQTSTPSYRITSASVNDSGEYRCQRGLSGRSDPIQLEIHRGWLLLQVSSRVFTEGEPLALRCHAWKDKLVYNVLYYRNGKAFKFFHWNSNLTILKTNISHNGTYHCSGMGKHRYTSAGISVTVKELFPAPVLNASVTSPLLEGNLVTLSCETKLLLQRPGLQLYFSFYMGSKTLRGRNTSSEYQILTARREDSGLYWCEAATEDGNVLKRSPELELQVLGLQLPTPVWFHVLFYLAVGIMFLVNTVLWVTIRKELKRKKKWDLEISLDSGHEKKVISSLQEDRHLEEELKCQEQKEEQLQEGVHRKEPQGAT

Binder	stoichiometry N (SEC)	Kd [1] [nM]	Kd (FcγRIIa on K562 cells) [nM]
B1	5	–	–
B2	–	4.6	19.7
